{
  "source": "paper PMC4336329",
  "about": "(PLoS ONE, 2015)",
  "note": "Among all 310,000 compounds or so, about 2,200 (0.71%) showed an effect of 50% or more. The effect is printed as a negative number. The list shows a part of the results.",
  "data": [
    {"molecular_target": "human ether-à-go-go-related gene (hERG) potassium channel (human, UniProt Q12809)", "sequence (Q12809 whole entry, looked up)": "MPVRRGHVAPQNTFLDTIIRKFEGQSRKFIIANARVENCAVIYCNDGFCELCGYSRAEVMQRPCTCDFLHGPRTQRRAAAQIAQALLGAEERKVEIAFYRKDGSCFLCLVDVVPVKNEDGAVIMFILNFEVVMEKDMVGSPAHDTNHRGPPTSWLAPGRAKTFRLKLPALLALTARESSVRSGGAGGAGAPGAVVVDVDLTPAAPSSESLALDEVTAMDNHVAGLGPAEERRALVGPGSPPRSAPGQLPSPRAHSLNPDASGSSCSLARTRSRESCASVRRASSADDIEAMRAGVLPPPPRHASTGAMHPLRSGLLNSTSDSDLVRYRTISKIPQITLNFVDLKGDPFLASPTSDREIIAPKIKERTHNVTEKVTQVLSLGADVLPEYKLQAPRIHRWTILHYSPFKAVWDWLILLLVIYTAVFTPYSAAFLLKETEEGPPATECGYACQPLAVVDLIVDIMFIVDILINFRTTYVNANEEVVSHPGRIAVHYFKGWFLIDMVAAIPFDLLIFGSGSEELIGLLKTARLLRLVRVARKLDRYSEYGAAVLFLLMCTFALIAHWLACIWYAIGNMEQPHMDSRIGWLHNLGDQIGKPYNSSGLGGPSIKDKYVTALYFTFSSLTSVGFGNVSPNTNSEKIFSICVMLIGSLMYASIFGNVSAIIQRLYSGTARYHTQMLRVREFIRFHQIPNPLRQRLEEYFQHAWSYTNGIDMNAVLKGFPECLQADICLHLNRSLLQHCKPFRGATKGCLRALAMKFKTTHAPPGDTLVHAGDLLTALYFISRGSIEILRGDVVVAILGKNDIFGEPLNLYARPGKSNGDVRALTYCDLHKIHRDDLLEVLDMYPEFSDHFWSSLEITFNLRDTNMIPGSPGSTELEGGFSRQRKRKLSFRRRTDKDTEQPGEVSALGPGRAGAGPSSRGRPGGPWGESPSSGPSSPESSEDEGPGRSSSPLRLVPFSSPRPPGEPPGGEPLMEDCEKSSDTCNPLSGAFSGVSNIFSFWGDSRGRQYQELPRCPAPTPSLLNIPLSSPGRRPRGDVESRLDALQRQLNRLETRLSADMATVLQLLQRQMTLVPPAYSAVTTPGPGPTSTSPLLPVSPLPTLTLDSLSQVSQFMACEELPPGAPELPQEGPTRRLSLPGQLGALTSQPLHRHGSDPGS", "test": "primary screen, population patch clamp on CHO cells stably expressing hERG", "units": {"hERG current change (%, negative = inhibition) at 1uM": "%"}, "values": [
      {"smiles": "COCCNc1nnc(SCC(=O)c2c[nH]c3ccccc23)s1", "hERG current change (%, negative = inhibition) at 1uM": 14.3},
      {"smiles": "COc1ccc(CN(C)C(=O)c2cc(S(=O)(=O)Nc3ccccc3F)ccc2C)c(OC)c1", "hERG current change (%, negative = inhibition) at 1uM": 1.52},
      {"smiles": "S=c1[nH]nc(-c2ccco2)n1C1CCCCC1", "hERG current change (%, negative = inhibition) at 1uM": 14.6},
      {"smiles": "CCOC(=O)N1CCN(S(=O)(=O)c2ccc(C)c(C(=O)NC3CCCCC3)c2)CC1", "hERG current change (%, negative = inhibition) at 1uM": 5.65},
      {"smiles": "C=C1CC(C(=O)N/N=C/c2ccccc2)C1", "hERG current change (%, negative = inhibition) at 1uM": 18.3},
      {"smiles": "Cc1ccnc(NC(=O)c2sc3ccccc3c2Cl)c1", "hERG current change (%, negative = inhibition) at 1uM": -13.5},
      {"smiles": "Cc1ccccc1CN1C(=O)c2ccccc2Sc2ccc(C(=O)O)cc21", "hERG current change (%, negative = inhibition) at 1uM": 6.76},
      {"smiles": "COc1ccc(CNCCNC(=O)c2ccco2)c(OC)c1OC", "hERG current change (%, negative = inhibition) at 1uM": -0.0852},
      {"smiles": "CCc1nc(NCCc2ccccn2)c2nnn(Cc3ccccc3F)c2n1", "hERG current change (%, negative = inhibition) at 1uM": 8.2},
      {"smiles": "O=C1[C@H]2[C@@H](c3ccc(F)cc3)N3C(=O)N(c4cccc(Br)c4)C(=O)[C@@]3(Cc3ccc(Cl)cc3)[C@H]2C(=O)N1C1CCCCC1", "hERG current change (%, negative = inhibition) at 1uM": 12.8},
      {"smiles": "O=C(NCc1cccnc1)c1nn2cccnc2c1Cl", "hERG current change (%, negative = inhibition) at 1uM": 7.62},
      {"smiles": "O=C(O)CCCCOn1ccnc1", "hERG current change (%, negative = inhibition) at 1uM": 13.6},
      {"smiles": "COC(=O)c1ccccc1-n1cccc1C(=O)NP(=O)(N1CCOCC1)N1CCOCC1", "hERG current change (%, negative = inhibition) at 1uM": 13},
      {"smiles": "Cc1ccc(S(=O)(=O)/N=C2/NC(=O)/C(=C/c3cc([N+](=O)[O-])ccc3O)S2)cc1", "hERG current change (%, negative = inhibition) at 1uM": 19.5},
      {"smiles": "CNS(=O)(=O)c1cccc(C(=O)NCC(c2cccs2)N(C)C)c1", "note": "(centres unmarked)", "hERG current change (%, negative = inhibition) at 1uM": 6.99},
      {"smiles": "Cc1ccccc1N=CC=C1OC(C)(C)C(C)(C)O1", "hERG current change (%, negative = inhibition) at 1uM": 6.67},
      {"smiles": "O=C(O)c1cccnc1SC1CC(=O)N(c2ccc(OC(F)F)cc2)C1=O", "note": "(centres unmarked)", "hERG current change (%, negative = inhibition) at 1uM": 8.32},
      {"smiles": "O=C(Cn1ccc([N+](=O)[O-])n1)NCc1cccnc1", "hERG current change (%, negative = inhibition) at 1uM": 10.8},
      {"smiles": "CCC(=O)N1CCc2cc(S(=O)(=O)CCC(=O)NCCC3=CCCCC3)ccc21", "hERG current change (%, negative = inhibition) at 1uM": 8.45},
      {"smiles": "CCC1=C2CC[C@H]3C(=O)N(c4ccccc4)C(=O)[C@H]3[C@H]2[C@@]2(C)C(=NCC3CC3)OC(=O)N2C1=O", "hERG current change (%, negative = inhibition) at 1uM": 9.99},
      {"smiles": "O=C(CNC(=O)c1ccccc1F)NCCOc1cccc(Cl)c1Cl", "hERG current change (%, negative = inhibition) at 1uM": 2.75},
      {"smiles": "COc1cc(/C=N/NC(N)=S)ccc1OCC(=O)N1CCOCC1", "hERG current change (%, negative = inhibition) at 1uM": 4.29},
      {"smiles": "COc1ccccc1/C=C/CN1CCNC(=O)C1CC(=O)NCCc1cnccn1", "note": "(centres unmarked)", "hERG current change (%, negative = inhibition) at 1uM": 18},
      {"smiles": "CCOC(=O)c1cnc2nc(NCc3ccc(OCc4ccccc4)cc3)[nH]n2c1=O", "hERG current change (%, negative = inhibition) at 1uM": 7.79},
      {"smiles": "CNC(=S)N/N=C(\\C)c1cccc(C(F)(F)F)c1", "hERG current change (%, negative = inhibition) at 1uM": 3.31},
      {"smiles": "O=C1NC(=O)C2(Cc3ccccc3N3CCCC32)C(=O)N1c1ccc(Cl)cc1", "note": "(centres unmarked)", "hERG current change (%, negative = inhibition) at 1uM": -15.8},
      {"smiles": "O=C(Nc1ccc(Cl)cc1)c1ccco1", "hERG current change (%, negative = inhibition) at 1uM": 12.2},
      {"smiles": "O=C(COC(=O)CCc1ccc(S(=O)(=O)N2CCOCC2)cc1)Nc1ncc(C(F)(F)F)cc1Cl", "hERG current change (%, negative = inhibition) at 1uM": 1.27},
      {"smiles": "Cc1[nH]c2ccccc2c1/C=N/NC(=O)CCC(=O)Nc1ccccc1", "hERG current change (%, negative = inhibition) at 1uM": 13.6},
      {"smiles": "C=CCC1(CC=C)CCCN1C(=O)c1cc(COc2cncc(Cl)c2)on1", "hERG current change (%, negative = inhibition) at 1uM": 4.15},
      {"smiles": "CCc1cccc(C)c1NC(=S)N1CC2CC(C1)c1cccc(=O)n1C2", "note": "(centres unmarked)", "hERG current change (%, negative = inhibition) at 1uM": 14.3},
      {"smiles": "Cn1c(O)c(/C=N/N2CCOCC2)c(=O)n(-c2ccccc2)c1=S", "hERG current change (%, negative = inhibition) at 1uM": 13.5},
      {"smiles": "COc1ccccc1CC(=O)Nc1ccc(-c2noc(COc3ccc(Cl)c(C)c3)n2)cc1", "hERG current change (%, negative = inhibition) at 1uM": 10.4},
      {"smiles": "O=C(NCc1ccco1)c1ccc2c(=O)n(Cc3ccco3)c(SCC(=O)N3CCCC3)nc2c1", "hERG current change (%, negative = inhibition) at 1uM": -66.9},
      {"smiles": "COCc1nnc(NS(=O)(=O)c2ccc(NC(C)=O)cc2)s1", "hERG current change (%, negative = inhibition) at 1uM": 6.79},
      {"smiles": "CC(C)CNC(=O)CC(=O)N/N=C/c1ccc(F)cc1", "hERG current change (%, negative = inhibition) at 1uM": -1.92},
      {"smiles": "COc1ccc(-c2nnc(-c3ccccc3)o2)cc1OC", "hERG current change (%, negative = inhibition) at 1uM": -1.19},
      {"smiles": "COc1ccc(NC(=S)N2CCCC(CO)C2)c(OC)c1", "note": "(centres unmarked)", "hERG current change (%, negative = inhibition) at 1uM": 2.52},
      {"smiles": "COCCCNC(=S)NCCCNc1nc2cc(C)cc(C)c2cc1C#N", "hERG current change (%, negative = inhibition) at 1uM": 14.1},
      {"smiles": "O=S(=O)(c1ccccc1)N1CCN(S(=O)(=O)N2CCCCCC2)CC1", "hERG current change (%, negative = inhibition) at 1uM": 9.54},
      {"smiles": "CCOc1ccc(S(=O)(=O)NCC2CCCO2)c2ccccc12", "note": "(centres unmarked)", "hERG current change (%, negative = inhibition) at 1uM": 4.4},
      {"smiles": "S=C(NCCc1ccccc1)NCC(c1ccco1)N1CCCCC1", "note": "(centres unmarked)", "hERG current change (%, negative = inhibition) at 1uM": 8.71},
      {"smiles": "CS/C(=N\\S(=O)(=O)c1cccs1)Nc1ccc(Br)cc1F", "hERG current change (%, negative = inhibition) at 1uM": 7.34},
      {"smiles": "CCOC(=O)CSc1nc2cc(C(=O)N3CCCC3)ccc2c(=O)n1Cc1ccccc1", "hERG current change (%, negative = inhibition) at 1uM": -0.163},
      {"smiles": "COCCNC(=O)CCn1c(=O)oc2ccccc21", "hERG current change (%, negative = inhibition) at 1uM": 9.29},
      {"smiles": "CCOC(=O)c1c(NC(=O)C2=C(C)NC(=S)NC2c2ccccc2C(F)(F)F)sc(C)c1C", "note": "(centres unmarked)", "hERG current change (%, negative = inhibition) at 1uM": 8.4},
      {"smiles": "COc1cccc(OC)c1C(=O)Nc1ccc2c3c(cccc13)CC2", "hERG current change (%, negative = inhibition) at 1uM": 0.28},
      {"smiles": "CCOc1ccc(OCC)c(NC(=O)CC2Oc3ccc(C)cc3NC2=O)c1", "note": "(centres unmarked)", "hERG current change (%, negative = inhibition) at 1uM": 7.22},
      {"smiles": "Cc1c(C)n(C)c2ccc(C(=O)NCCCN3CCCC3)cc12", "hERG current change (%, negative = inhibition) at 1uM": -7.58},
      {"smiles": "C=CCOc1ccc2ccccc2c1/C=N/O", "hERG current change (%, negative = inhibition) at 1uM": 12.1},
      {"smiles": "CN1C(=O)CSc2ccc(NC(=O)N3CCN(c4ccccn4)CC3)cc21", "hERG current change (%, negative = inhibition) at 1uM": 2.16},
      {"smiles": "C/C(=N/NS(=O)(=O)c1cc(C)ccc1C)c1ccc2c(c1)OCO2", "hERG current change (%, negative = inhibition) at 1uM": 11.3},
      {"smiles": "COc1cc(C(=O)Nc2ccc(Cl)c(C(F)(F)F)c2)cc(OC)c1OC", "hERG current change (%, negative = inhibition) at 1uM": 11.2},
      {"smiles": "Cc1cc2ccccn2c1C(C[N+](=O)[O-])c1c(F)cccc1Cl", "note": "(centres unmarked)", "hERG current change (%, negative = inhibition) at 1uM": 16.1},
      {"smiles": "CSc1ccc(C(=O)N2CCc3ccc(NC(=O)c4ccccn4)cc3C2)cc1", "hERG current change (%, negative = inhibition) at 1uM": 14.4},
      {"smiles": "Cc1nn(-c2ccc(C(=O)O)cc2)c(N)c1-c1ccccc1", "hERG current change (%, negative = inhibition) at 1uM": 13.6}
    ]}
  ]
}
